Assay results reported in the DeepSol protein solubility set.

Assay: soluble on expression in E. coli; label from the status in PepcDB or PDB records

MAVRYELAIGLNKGHKTSKIRNVKYTGDKKVKGLRGSRLKNIQTRHTKFMRDLVREVVGHAPYEKRTMELLKVSKDKRALKFLKRRLGTHIRAKRKREELSNILTQLRKAQTHAK
soluble on expression in E. coli: not soluble

MRAKGLLKEYEVVGRKLPSEKEPQTPLYKMRIFAPDNIVAKSRFWYFLRQLKKFKKTTGEIVSIKQVYETSPVKIKNFGIWLRYDSRSGTHNMYREYRDLTVGGAVTQCYRDMGARHRARAHSIQIIKVDSIPAAKTRRVHVKQFHDSKIKFPLVQRVHHKGNRKLFSFRKPRTYFQLEHHHHHH
soluble on expression in E. coli: soluble

MRHMFFGVPSQDTQSVAVLSYSFFKFLRIFYHFDLLNIRFKFSTSTVSGCKAIRAERMAIPSNLMQFSEDIIKQLTPEEIDEFREAFMMFDKDGNGTISTKELGIAMRSLGQNPTEQEILEMINEVDIDGNGQIEFPEFCVMMKRMMKETDSEMIREAFRVFDKDGNGVITAQEFRYFMVHMGMQFSEEEVDEMIKEVDVDGDGEIDYEEFVKMMSNQ
soluble on expression in E. coli: not soluble

MGPEIERKSHLAYQVARFEAVAMGFPVQYRQVVVEFYYHGRLDGSSGTLATAVGLLALFTGVEISPRFAITGSLDVFGWPPYCCLFSKMSSGGGNQKSDGQVEEDAAECKFPKEFETTTCDALLTAEVYLLLEHRRQSSESKDEIEEMSEVFIKTLNYARRMSRFKNRETIRAVRAIFSEKHLHKFEVAQIANLCPENAEEAKALVPSLENKIEESELEEVLKDLQSKRTFQ
soluble on expression in E. coli: not soluble

MAHHHHHHSLKIAEIQLFQHDLPVVNGPYRIASGDVWSLTTTIVKIIAEDGTIGWGETCPVGPTYAEAHAGGALAALEVLASGLAGAEALPLPLHTRMDSLLCGHNYAKSALDIAVHDLWGKRLGVPVHELLGGALTDSVSSYYSLGVMEPDEAARQALEKQREGYSRLQVKLGARPIEIDIEAIRKVWEAVRGTGIALAADGNRGWTTRDALRFSRECPDIPFVMEQPCNSFEDLEAIRPLCHHALYMDEDGTSLNTVITAAATSLVDGFGMKVSRIGGLQHMRAFRDFCAARNLPHTCDDAWGGDIVSAACTHIASTVLPRLMEGAWLAQPYVAEHYDAENGVRIEGGRIRVPQGPGLGLTIDPERFGPPLFSA
soluble on expression in E. coli: soluble

MPISVDKAVIARLKIQGETFEILVDPYLARDFKEGKNVPIEEILATPYVFKDAHKGDKASEKEMEKIFGTSDPYEVAKIILKKGEVQLTAQQRREMLEEKKRQIATIIHKHAVDPRTGYPHPVDRILRAMEEVGVRVDIFKDAEAQVQDVIKALRRVLPLRIEMKVIAVKIPGEYVGRSYGEVRKFGRIKKEEWGSDGSWMFLIEIPGGVEEEFYEKLNALTKGNAQTKLIERKGLLEHHHHHH
soluble on expression in E. coli: soluble

MSLRKINFVTGNVKKLEEVKAILKNFEVSNVDVDLDEFQGEPEFIAERKCREAVEAVKGPVLVEDTSLCFNAMGGLPGPYIKWFLKNLKPEGLHNMLAGFSDKTAYAQCIFAYTEGLGKPIHVFAGKCPGQIVAPRGDTAFGWDPCFQPDGFKETFGEMDKDVKNEISHRAKALELLKEYFQNN
soluble on expression in E. coli: not soluble

SNKQFHTGIEIKVWAIACFAPQRQCTEVHLKSFTEQLRKISRDAGMPIQGQPCFCKYAQGADSVEPMFRHLKNTYAGLQLVVVILPGKTPVYAEVKRVGDTVLGMATQCVQMKNVQRTTPQTLSNLCLKINVKLGGVN
soluble on expression in E. coli: soluble

MGSDKIHHHHHHLSFLQNVVLVDMITIKKGLELPIAGGPEQVIHNGPAIKHVATLGEEYIGLRPTMKIKVGDKVQKGQVLFEDKKNLGVKYTALASGTILDINRGAQRVLQSVVIQVEGNDSVSFAKYDATALDTLDSQLVRDNLIESGLWTALRTRPFSKVPAVDSSAAGIFVTAIDTQPLAADPVVVIREHKEDFANGLKILARLTEGKVYLCKAPGADIPAANAQVEEFAGVHPAGLVGTHIHFLLPASAKRTVWHIGYQDVIAIGQLFTTGELNTERVVAIAGPKAAKPRLVRTVLGASMVELTAGETLAGNVRLISGSVLNGRTAVGPQGYLGRYHVQVSLLEEGTEKEFLGWVLPGSNKFSITRAFLGHLTPSRLFSMTTSTGGSDRAMVPIGNYERVMPLDILPTMLLRDLVSGDFDGAATLGALELDEEDLALCTFVCPGKYDYGSYLRDCLDTIEREG
soluble on expression in E. coli: not soluble
